In all, about 420,000 compounds went through this assay and about 64,000 (15%) were called active. This list was built around the results that the source calls inconclusive (neither active nor inactive); the mix of calls is not that of the screen. The call rests on the fitted dose curve; in most records, active means well fitted inhibition curve with a large enough effect; inconclusive means small, poorly fitted or top-dose-only effect; inactive means flat fitted curve, though single readings scatter. Potencies of inconclusive entries are left out as doubtful fits.
Assay: qHTS for Inhibitors of human tyrosyl-DNA phosphodiesterase 1 (TDP1): qHTS in cells in absence of CPT; further: nearly all actives have a fitted effect of over 55% in size
Conditions: DT40 Tdp1-/- hTDP1 cells, no CPT, ATP luminescence, 48 h; activity change, negative = growth inhibition: at 46.2 µM (top of the series)
Procedure, shortened: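 Growth of hTDP1-complemented DT40 Tdp1-knockout cells is measured by ATP luminescence after at least 48 hr compound exposure at 37 °C, with DMSO substituting for the 20 nM CPT used in the parallel screen.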
On the % scale 0 is the no-effect control and ±100 the full control effect; potency means the concentration at half of the fitted maximal effect; tags describe the fitted curve by direction and shape.

| Compound | Potency | activity change, negative = growth inhibition |
| --- | --- | --- |
| Cc1cc(NC(=O)CCC(=O)N(Cc2ccco2)C(C)(C)C(=O)NC2CCCCC2)no1 | inconclusive [inhibitor, single point] | – |
| NC(=O)c1ccccc1NC(=O)/C=C/c1ccccc1 | active: 20.6 µM | – |
| c1ccc(-c2nnc(CN3CCN(C(c4ccccc4)c4ccccc4)CC3)o2)cc1 | inconclusive [inhibitor, single point] | – |
| COc1cccc(/C=N/NC(=O)CNC(=O)c2ccc(S(=O)(=O)N3CCOCC3)cc2)c1OC | inactive | – |
| CCCCn1c(N)c(N(CCOC)C(=O)c2cc(S(=O)(=O)N3CCOCC3)ccc2Cl)c(=O)[nH]c1=O | inactive | – |
| Cc1c(C)n(C)c2ccc(C(=O)NCCc3ccc(Cl)cc3)cc12 | inconclusive [inhibitor, single point] | – |
| CCOC(=O)COc1ccc(CC)cc1C(=O)c1ccn2nc(-c3ccc(Cl)cc3)cc2n1 | active: 20.6 µM | – |
| O=C(O)CCNC(=O)/C(=C\c1ccco1)NC(=O)c1ccco1 | inactive | – |
| CN(C)CCNC(=O)c1cccc2c(-c3ccc(F)c(F)c3)coc12 | inconclusive [inhibitor, single point] | – |
| O=c1cc(-c2ccccc2)[nH]n1-c1ccc([N+](=O)[O-])cc1 | inconclusive [inhibitor, single point] | – |
| Cc1nn2c3ccccc3n(CCN3CCCCC3)c2nc1=O | inactive | – |
| COc1ccccc1-c1nnc2sc(COc3ccc(Cl)cc3Cl)nn12 | inconclusive [inhibitor, single point] | – |
| O=C(NC1CCCC1)C1(c2ccccc2)CCN(S(=O)(=O)c2ccccc2)CC1 | – | inconclusive: -30.4% [inhibitor] |
| CC1=C(C(=O)Nc2ccccc2)C(c2ccncc2)C(C#N)=C(SCC(=O)Nc2ccccc2)N1 (stereo unspecified) | inconclusive [inhibitor, single point] | – |
| Cc1ccc(CNC(=O)c2ccc(N3CCC4(CC3)CC(c3ccccc3)=NO4)c([N+](=O)[O-])c2)cc1 | inconclusive [inhibitor, partial curve, poor fit] | – |
| CN(Cc1cccnc1)C(=O)Cc1ccc(NS(=O)(=O)c2cccc(C(F)(F)F)c2)cc1 | inconclusive [inhibitor, partial curve, poor fit] | – |
| COC(=O)c1sc2cccc(F)c2c1S(=O)(=O)NCc1ccc(Cl)cc1 | inactive | – |
| O=C(CN1C(=O)NC2(CCCCCCC2)C1=O)Nc1ccc(Cl)cc1 | active: 14.6 µM | – |
| COCCN(C(=O)CSc1nc2ccccc2c(=O)n1CC(C)C)c1c(N)n(Cc2ccccc2)c(=O)[nH]c1=O | inactive | – |
| COc1cc(C(=O)OCC(=O)NCCN2C(=O)CSC2=O)ccc1OCc1c(C)noc1C | inactive | – |
| CC(C)CNS(=O)(=O)c1ccc(CCC(=O)NC2CCCC2)cc1 | inactive | – |
| CC(=O)Nc1ccc(NC(=O)CCC(=O)OCC(=O)c2ccc(C)c([N+](=O)[O-])c2)cc1 | inactive | – |
| Cc1ccc(S(=O)(=O)c2nnn3c2nc(N2CCC(C(N)=O)CC2)c2ccccc23)cc1 | inactive | – |
| Cc1cccc(NC(=O)CN2C(=O)NC3(CCCCCCC3)C2=O)c1C | inconclusive [inhibitor, full curve, poor fit] | – |

| Compound | Potency | activity change, negative = growth inhibition |
| --- | --- | --- |
| COc1cccc(CNC(=O)CSC2=Nc3ccccc3C3=NC(C)C(=O)N23)c1OC (stereo unspecified) | inconclusive [inhibitor, partial curve] | – |
| CC(=O)c1ccc(N2CCN(C(=O)C3CCN(S(=O)(=O)c4cccs4)CC3)CC2)cc1 | active: 13 µM | – |
| O=C(CSc1nc2cccnc2n1Cc1ccccc1)N1CCCC1 | inconclusive [inhibitor, single point] | – |
| COc1ccc(C2c3c4c(n(C)c3CCN2C)CCN(C)C4c2ccc(OC)cc2)cc1 (stereo unspecified) | inconclusive [inhibitor, partial curve] | – |
| Cc1cccc2nc(Cn3c(=O)n(CCC(=O)NCc4ccco4)c(=O)c4ccccc43)cc(=O)n12 | inconclusive [inhibitor, single point] | – |
| O=c1[nH]c(CSc2cccc[n+]2[O-])nc2ccccc12 | inconclusive [inhibitor, single point] | – |
| CCN(Cc1cnn(C)c1)Cc1nc(C2(c3ccc(C)cc3)CCCC2)no1 | inconclusive [inhibitor, single point] | – |
| Fc1ccc(-c2cc(C(F)(F)F)nc(NCc3ccccc3)n2)cc1 | inconclusive [inhibitor, partial curve] | – |
| Cc1c(C(=O)NC2CCC(C)CC2)oc2ccccc12 (stereo unspecified) | inactive | – |
| COC(=O)[C@H](CC(C)C)N1Cc2cc(OC)cc(OC)c2-c2ccccc2S1(=O)=O | active: 16.4 µM | – |
| Cc1cn(C2OC(COC(=O)c3ccccc3)C(OC(=O)c3ccccc3)C2OC(=O)c2ccccc2)c(=O)[nH]c1=O (stereo unspecified) | inconclusive [inhibitor, single point] | – |
| CCOc1ccc(S(=O)(=O)NCc2ccccn2)c(C)c1C | inactive | – |
| CCOC(=O)c1[nH]c(C)c(C(=O)OCc2ccc(C)cc2)c1C | inactive | – |
| CCc1cccc(NS(=O)(=O)c2ccc3c(c2)N(C)CCO3)c1 | inconclusive [inhibitor, single point] | – |
| COc1ccccc1CNC(=O)c1cnc2c(-c3ccccc3)c(C)nn2c1C | inconclusive [inhibitor, single point] | – |
| COc1ccc(N(CC(=O)N2CCc3ccccc3C2)S(C)(=O)=O)cc1Cl | inactive | – |
| CC(=O)OC[C@@H]1CN(Cc2ccccc2)C[C@H](n2cnc3c(NCC(C)C)ncnc32)O1 | inconclusive [inhibitor, single point] | – |
| Cc1cc(C(=O)NNC(=O)C2CCCC2)c(C)o1 | inactive | – |
| O=C(c1ccc2c(c1)N(Cc1ccc(F)cc1)C(=O)c1ccccc1S2(=O)=O)N1CCN(c2ccccn2)CC1 | active: 18.4 µM | – |
| CCOc1ccc(NC(=O)CCN2C(=O)c3ccccc3C2=O)cc1 | inactive | – |
| CC(=O)c1ccc(NC(=S)NCC(c2ccco2)N2CCCC2)cc1 (stereo unspecified) | inactive | – |
| Cc1ccccc1NC(=O)C1CCCN(S(=O)(=O)c2cnc[nH]2)C1 (stereo unspecified) | inactive | – |
| O=C(Nc1ccc(S(=O)(=O)N2CCCC2)cc1)C1CC(=O)N(CCc2ccc(F)cc2)C1 (stereo unspecified) | inconclusive [inhibitor, partial curve] | – |
| CCCC1=C(C(=O)OCC)C(c2cccs2)C(C#N)=C(N)O1 (stereo unspecified) | inconclusive [inhibitor, partial curve] | – |

| Compound | Potency | activity change, negative = growth inhibition |
| --- | --- | --- |
| Cc1ccccc1-c1n[nH]c(=S)n1/N=C/c1ccc(-c2ccccc2Br)o1 | inconclusive [inhibitor, single point] | – |
| Cc1cccc(OC(C)C(=O)NCc2ccc(S(N)(=O)=O)cc2)c1 (stereo unspecified) | inactive | – |
| Cc1ccc(C2CC(C(F)(F)F)n3nc(C(=O)NCc4c(C)nn(C)c4C)c(Cl)c3N2)cc1 (stereo unspecified) | active: 5.17 µM | – |
| CCOC(=O)OC(C)OC(=O)C1N2C(=O)C(NC(=O)C(N)c3ccccc3)C2SC1(C)C (stereo unspecified) | inactive | – |
| COc1ccc(C(=O)Nc2ccccc2-c2nc(-c3ccc(OC)cc3)no2)cc1 | inactive | – |
| Nc1c(C(=O)Nc2ccc3c(c2)OCCO3)nnn1Cc1ccc(Br)cc1 | inactive | – |
| CC(=O)c1ccc(N2CCN(C(=O)c3cc4ccc5cccnc5c4[nH]3)CC2)cc1 | active: 18.4 µM | – |
| S=C(NCCCN1CCOCC1)N1CCN(c2cccc(Cl)c2)CC1 | active: 18.4 µM | – |
| O=C(Nc1ccc(Cl)cc1)c1cc2nc(-c3ccc4c(c3)OCO4)cc(C(F)(F)F)n2n1 | inconclusive [inhibitor, single point] | – |
| CCn1c(=O)n(-c2cccc(Cl)c2)c(=O)c2sc3ccccc3c21 | inconclusive [inhibitor, partial curve] | – |
| CCOC(=O)c1c(C)n(C)c2ccc(OCC(O)CN3CCN(C)CC3)cc12 (stereo unspecified) | inactive | – |
| COC(=O)[C@]12CCCCC=C1N(Cc1ccco1)C(=O)[C@H](CC(=O)NCc1cccc3ccccc13)C2 | inconclusive [inhibitor, partial curve, poor fit] | – |
| COC(=O)c1cc(=O)nc(NN=Cc2ccco2)s1 | inactive | – |
| COc1ccc(Nc2nc(C)c(C(C)=O)s2)cc1 | inconclusive [inhibitor, single point] | – |
| O=C(CC1SC(N2CCCCC2)=NC1=O)Nc1ccc(C(=O)Nc2ccccc2)cc1 (stereo unspecified) | inconclusive [inhibitor, single point] | – |
| N#Cc1ccccc1S(=O)(=O)N1CCN(C(=O)C2CCCCC2)CC1 | inactive | – |
| Cc1nc(C)c(CC(=O)N2CCc3c([nH]c4ccccc34)C2c2ccccn2)s1 (stereo unspecified) | inconclusive [inhibitor, single point] | – |
| C=C1CCN([C@@H](CC(C)C)C(=O)NCc2ccc(OC)cc2)S(=O)(=O)c2ccccc21 | active: 23.1 µM | – |
| O=C(COC(=O)c1ccc(Oc2ccccc2)cc1)Nc1nnc(-c2ccccc2)o1 | inconclusive [inhibitor, single point] | – |
| O=c1ccc(S(=O)(=O)N2CCCC2)cn1Cc1ccc(Cl)cc1Cl | active: 11.6 µM | – |
| COc1cc(OC)c(NC(=O)CCNS(=O)(=O)c2cc(Br)cnc2N)cc1Cl | inconclusive [inhibitor, partial curve] | – |
| CC1(C(=O)NCc2cccnc2)Cc2c(-c3cccc(C(F)(F)F)c3)ccnc2O1 (stereo unspecified) | active: 20.6 µM | – |
| N#CC1(NC(=O)COC(=O)c2cc(O)c3ccccc3c2O)CCCCC1 | inconclusive [inhibitor, single point] | – |
